Measurements: PMC4336329 (PLoS ONE, 2015)
Out of some 310,000 compounds screened, about 2,200 (0.71%) showed an effect of 50% or more. Effects have a minus sign here. Some of the results follow.

Target: human ether-à-go-go-related gene (hERG) potassium channel (human, UniProt Q12809)
Experiment: primary screen, population patch clamp on CHO cells stably expressing hERG

Sequence of human ether-à-go-go-related gene (hERG) potassium channel (Q12809 whole entry, looked up): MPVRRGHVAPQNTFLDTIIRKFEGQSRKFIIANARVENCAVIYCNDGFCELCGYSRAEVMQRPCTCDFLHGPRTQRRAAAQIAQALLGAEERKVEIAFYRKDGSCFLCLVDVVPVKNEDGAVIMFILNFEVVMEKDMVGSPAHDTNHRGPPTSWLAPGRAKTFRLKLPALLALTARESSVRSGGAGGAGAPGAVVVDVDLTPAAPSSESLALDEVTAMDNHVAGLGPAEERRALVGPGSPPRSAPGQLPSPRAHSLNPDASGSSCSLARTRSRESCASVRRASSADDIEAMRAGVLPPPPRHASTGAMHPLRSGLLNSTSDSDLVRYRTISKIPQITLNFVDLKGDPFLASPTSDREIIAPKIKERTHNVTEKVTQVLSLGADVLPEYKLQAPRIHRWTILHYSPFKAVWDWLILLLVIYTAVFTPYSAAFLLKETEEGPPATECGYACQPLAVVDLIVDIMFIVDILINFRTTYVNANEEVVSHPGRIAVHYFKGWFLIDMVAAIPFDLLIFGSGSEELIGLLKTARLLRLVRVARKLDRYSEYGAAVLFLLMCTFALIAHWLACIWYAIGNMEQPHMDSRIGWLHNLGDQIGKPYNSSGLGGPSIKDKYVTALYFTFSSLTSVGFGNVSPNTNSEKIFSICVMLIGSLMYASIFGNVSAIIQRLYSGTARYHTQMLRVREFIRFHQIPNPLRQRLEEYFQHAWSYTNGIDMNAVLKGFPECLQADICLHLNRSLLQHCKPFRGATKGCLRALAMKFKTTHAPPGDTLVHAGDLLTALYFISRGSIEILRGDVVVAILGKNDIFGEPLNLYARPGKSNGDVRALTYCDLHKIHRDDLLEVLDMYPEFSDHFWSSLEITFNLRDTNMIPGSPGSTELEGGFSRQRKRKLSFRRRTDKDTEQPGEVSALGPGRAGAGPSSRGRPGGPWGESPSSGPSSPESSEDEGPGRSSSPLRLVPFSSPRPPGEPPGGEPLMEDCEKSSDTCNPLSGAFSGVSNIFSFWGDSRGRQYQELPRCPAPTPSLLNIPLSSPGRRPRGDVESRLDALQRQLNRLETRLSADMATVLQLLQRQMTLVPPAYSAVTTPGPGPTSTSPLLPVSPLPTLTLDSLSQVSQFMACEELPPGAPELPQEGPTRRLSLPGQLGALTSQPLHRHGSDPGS

Compound	hERG current change (%, negative = inhibition) at 1uM [%]
COc1ccccc1-n1nnnc1SCC(=O)NC1CCCCC1	9.3
CC/C(=N/Nc1ccccc1C)c1cnnc(SC)n1	10.8
CC1=C([N+](=O)[O-])C(c2ccccc2C(F)(F)F)NC(=O)N1C (centres unmarked)	9.96
Cc1cc(=O)oc2cc(OCC(=O)OCC(=O)Nc3ccccc3C(C)C)ccc12	7.48
CCCN1CCN(CCCNC(=O)c2ccc3c(c2)NC(=O)c2ccccc2S3)CC1	9.21
COc1ccccc1N1CCN(C(=O)c2ccc3c(Cl)c4c(nc3c2)CCCC4)CC1	11.1
COc1cc(=O)n2c(-c3ccccc3)csc2n1	10.9
CCc1ccccc1NC(=S)N(CCCN(C)C)Cc1cc2cc3c(cc2[nH]c1=O)OCO3	4.24
CCN(C(=O)CCN1C(=O)c2ccccc2C1=O)C1CCCCC1	12.2
O=C(C1CCCN(S(=O)(=O)c2cccc3cccnc23)C1)N1CCc2ccccc21 (centres unmarked)	-11.6
COC(=O)Nc1sc2c(c1C(=O)N1CCOCC1)CCC(C)C2 (centres unmarked)	-3.07
CCOC(=O)/C(=C\c1ccccc1)NC(=O)c1ccccc1	5.91
COc1cccc(C(=O)NC(=O)Nc2nc(C)cc(C(F)(F)F)n2)c1	15.6
CC(=O)NC1C(=O)N(Cc2ccccc2)c2ccc(Br)cc21 (centres unmarked)	7.93
C=CCn1c(SCC(=O)Nc2nc3ccccc3s2)nc(O)c(CC)c1=O	10.3
NC(=O)C1(N2CCCCC2)CCN(Cc2ccc(Br)cc2)CC1	-22.6
CCCc1cc2c(=O)c(-c3ccc4c(c3)OCCO4)c(C)oc2cc1OS(C)(=O)=O	-1.66
COc1ccc(NC(=O)CN(C)CC(=O)NCc2ccc(C)cc2)cc1	2.26
Cc1ccc(C(=O)NC(=S)Nc2ccccc2C)cc1	-2.95
COc1ccccc1-c1nnc(NC(=O)Cc2ccccc2)o1	17
CCOC(=O)c1ccc(NC(=S)NCc2cccnc2)cc1	18.7
O=C(CSc1nnc(-c2cccc(F)c2)o1)N1CCCC1	8.74
Cc1ccc(C(=O)N/N=C/c2ccc(N3CCOCC3)cc2)c(C)c1	19.4

Compound	hERG current change (%, negative = inhibition) at 1uM [%]
COC(=O)c1ccc(OCC2NCCc3cc(OC)c(OC)cc32)cc1 (centres unmarked)	0.932
COc1nc(OC/C(N)=N/O)nc(N2CCOCC2)n1	-9.18
Cc1cc(Oc2ccccc2)nc(SCC(=O)Nc2ccccc2)n1	15.9
CN(c1ccccc1)S(=O)(=O)c1cccc(NC(=O)CSc2ncc(C(F)(F)F)cc2Cl)c1	9.03
COC(=O)CNC(=O)Cc1c(F)cccc1Cl	9.57
COc1ccc(N(CC(=O)N2CCN(c3ccc(Cl)cc3)CC2)S(=O)(=O)c2c(C)n[nH]c2C)cc1	7.13
Cn1c(=O)c(C(=O)CSc2nncs2)c(N)n(Cc2ccccc2)c1=O	22.2
NC(=O)CCC(NC(=O)c1ccc(Cl)cc1)C(=O)O (centres unmarked)	14.2
CCN1CCN(C(=O)C2CCN(S(=O)(=O)c3ccc(SC)cc3)CC2)CC1	9.37
COc1cccc(C(C#N)N2N=C(C)CC2(C)C)c1O (centres unmarked)	13.5
CCOC(=O)CSc1nc2ccccc2c(=O)n1Cc1ccco1	0.785
CN1CCN(c2ncnc3c2cnn3-c2ccc(Cl)cc2)CC1	14.8
O=C(Cc1ccccc1F)Nc1nc(-c2ccc(F)c(F)c2)cs1	6.68
O=C(Nc1nc2ccccc2n1Cc1ccccc1)c1ccco1	12.6
COc1ccc(-c2cc(C#N)nc(NN)n2)cc1	12.2
CCC1CCC(C(=O)NC(C(=O)NCCc2ccc(S(N)(=O)=O)cc2)C(C)C)CC1 (centres unmarked)	15.1
Cc1ccc(N(C(=O)CCC(=O)Nc2ccccn2)C(C(=O)NC(C)C)c2ccc(F)cc2)cc1 (centres unmarked)	17.1
COc1ccc(C(=O)NCC(C)C)c(OC)c1	7.16
COc1ccc2c(c1)CCN=C2Cc1ccc(OC)c(OC)c1.Cl	5.9
CCCCc1nc(SCC(=O)Nc2cccc(Cl)c2)n[nH]1	10.9
CCOC(=O)CCCOC(=O)c1ccc(S(=O)(=O)N(C)C)cc1	6.39
CC(=O)Nc1nc(-c2ccc3ccccc3c2)cs1	9.4
CNc1c(NS(=O)(=O)c2ccc(OC)c(Cl)c2)c(=O)oc2ccccc12	10.5

Compound	hERG current change (%, negative = inhibition) at 1uM [%]
O=C(OCC(CO)OC(CO)n1ccc(=O)[nH]c1=O)c1ccccc1 (centres unmarked)	9.5
O=C(CN1CCN(c2ncc(C(F)(F)F)cc2Cl)CC1)Nc1ccc2c(c1)OCO2	1.03
COc1ccc(CNC(=O)CSc2nc3nc(C)cc(C)n3n2)cc1	7.4
O=c1[nH]c2ccccc2c2ccccc12	15.2
Cc1ccc(NC(=O)COn2nnc3ccc(S(=O)(=O)N(C)C)cc32)cc1F	11.4
Cc1ccc(NC(=O)CCC(=O)NNC(=O)Cc2ccccc2)cc1C	5.79
CC(C)CC(OC(=O)c1nsc(Cl)c1Cl)C(=O)NC1CCCC1 (centres unmarked)	13.9
Cc1ccccc1-n1nnnc1SCC(=O)c1c(N)n(C)c(=O)n(C)c1=O	10.2
COc1cc(/C=N\NC(=O)Cn2nnc3ccccc32)cc(OC)c1OC	-3.76
Cc1nnc2c3ccccc3c(Cl)nn12	7.77
Cc1ccc(C)c(S(=O)(=O)Nc2ccccc2C(=O)Nc2ccccc2N2CCOCC2)c1	9
CC(=O)N1CCN(C(=O)c2cc(-c3ccc(Cl)s3)nc3ccccc23)CC1	-7.89
COc1ccccc1CNC(=O)c1ccc(CS(=O)(=O)c2ccccc2C)o1	-4.08
COc1cccc(Cn2cnc3c(NS(=O)(=O)c4cc(Cl)ccc4Cl)c(C)c(C)cc32)c1	6.11
CSCCC(NC(=O)c1ccco1)C(=O)OCC(=O)N1c2ccccc2NC(=O)C1(C)C (centres unmarked)	5.85
CCCCNc1ncnc2sc3c(c12)CCN(CCC)C3	-80.9
CCc1ccc(N(C2C=CS(=O)(=O)C2)S(=O)(=O)c2ccccc2)cc1 (centres unmarked)	10.1
CCN(CC(=O)NCC1CCCO1)S(=O)(=O)c1ccc2ccccc2c1 (centres unmarked)	15.4
COc1ccc(CNC(=O)CNS(=O)(=O)c2cccs2)cc1	11.4
CCOC(=O)C1(c2ccccc2)CCN(CCC(=O)Nc2ccc(F)cc2)CC1	3.03
Cc1cccc(NC(=O)c2cccc(C(=O)Nc3cccc(C)c3)c2)c1	14.1
CCOc1cc(NS(=O)(=O)c2ccc(OC)cc2)c(OCC)cc1NC(=O)c1ccco1	-12
Cc1cc(CNC(=O)CC2C(=O)NCCN2CC(C)(C)C)nn1C (centres unmarked)	10.4

Compound	hERG current change (%, negative = inhibition) at 1uM [%]
CCOC(=O)c1c2n(c3c(NCc4ccccc4)ncnc13)CCCC2	-70.3
COc1ccc(CN2CCN(C(=O)c3cccc(OC)c3OC)CC2)cc1OC.O=C(O)C(=O)O	11.2
CCOC(=O)CN(C(=O)Cn1nnc(-c2ccc(OC)cc2)n1)C(C(=O)NC1CCCC1)c1ccc(F)cc1 (centres unmarked)	6
CNC(=O)c1ccc(-c2ccccc2)s1	12.6
O=C(NCc1ccccc1Cl)C1CCN(S(=O)(=O)c2ccc(N3CCCC3=O)cc2)CC1	18.4
CCOC(=O)C1CCCN(CC(=O)Nc2c(C(=O)OC)[nH]c3ccc(C)cc23)C1 (centres unmarked)	7.52
O=C1CN(C(=O)CSc2nncn2-c2ccccc2)c2ccccc2N1	18.3
CCN1C(=O)c2ccccc2Sc2ccc(C(=O)O)cc21	6.72
O=C(N/N=C/c1cccc([N+](=O)[O-])c1)c1ccc2nc[nH]c2c1	14.2
O=[N+]([O-])O[C@H]1CO[C@H]2[C@@H]1OC[C@H]2O[N+](=O)[O-]	5.3
Cc1ccc2cc(CNC(C)(C)C)c(=O)[nH]c2c1	-5.6
O=C(Nc1cccnc1)c1cccc(S(=O)(=O)N2CCc3ccccc32)c1	6.42
CC(=O)Nc1ccc(NC(=O)CNC(=O)COc2ccccc2)cc1	7.99
CC(=O)N1CCc2cc(S(=O)(=O)CCC(=O)NCc3ccc4c(c3)OCO4)ccc21	2.72
COC(=O)C1=C(C)NC(=O)NC1/C=C/c1ccccc1 (centres unmarked)	-2.26
COc1ccc(C(=O)COC(=O)C2CCCN2C(=O)C23CC4CC(CC(C4)C2)C3)cc1 (centres unmarked)	-0.91
O=C(CNc1ccccc1)Nc1ccc(F)cc1	14.8
COc1ccc(-n2nc(C(=O)NCC(=O)N3CCC(C(N)=O)CC3)c3ccccc3c2=O)cc1	14.1
COc1ccccc1CNC(=O)c1cc(-c2ccccc2C)nn1CC1CC(c2cccnc2)=NO1 (centres unmarked)	3.82
COc1cc(C=O)ccc1OCC(=O)Nc1ccc2c(c1)OCO2	11.8
